The GPR68 mutational scans of Howard et al. (2025)
Scores with a large standard error are left out. Two further conditions of the source, in which the scores hardly spread, are not listed. Read del as a deletion of the residues named and ins as an insertion between two positions. For some assays here: The data file names ogerin without a concentration.

B1: GPR68, Q15743 (parent)
chain: MGNITADNSSMSCTIDHTIHQTLAPVVYVTVLVVGFPANCLSLYFGYLQIKARNELGVYLCNLTVADLFYICSLPFWLQYVLQHDNWSHGDLSCQVCGILLYENIYISVGFLCCISVDRYLAVAHPFRFHQFRTLKAAVGVSVVIWAKELLTSIYFLMHEEVIEDENQHRVCFEHYPIQAWQRAINYYRFLVGFLFPICLLLASYQGILRAVRRSHGTQKSRKDQIQRLVLSTVVIFLACFLPYHVLLLVRSVWEASCDFAKGVFNAYHFSLLLTSFNCVADPVLYCFVSETTHRDLARLRGACLAFLTCSRTGRAREAYPLGAPEASGKSGAQGEEPELLTKLHPAFQTPNSPGSGGFPTGRLA

Key:
[1] = variants of: B1; assay: cAMP reporter score (Enrich2 score, wild type = 0); higher = more signal; HEK293T, FACS bins
[2] = variants of: B1; assay: surface expression score (Enrich2 score, wild type = 0); higher = more signal; HEK293T, FACS bins

Row | Variant | cAMP reporter score ([1]; pH 5.5) | cAMP reporter score ([1]; pH 6) | cAMP reporter score ([1]; pH 6.5, modulator: ogerin) | cAMP reporter score ([1]; pH 6, modulator: ogerin) | surface expression score [2]
1 | I115_S116insGS | -2.06 | -0.363 | -2.27 | – | –
2 | I115_V117del | -1.39 | 0.148 | -0.167 | -0.887 | -3.29
3 | S116A | 1.98 | 3.31 | 3.18 | 1.34 | 1.92
4 | S116C | -0.361 | -0.207 | -1.19 | – | 1.9
5 | S116D | -1.77 | -1.09 | -1.8 | -1.98 | -3.18
6 | S116E | -0.428 | 0.063 | – | -0.67 | -0.392
7 | S116F | -1.07 | -0.779 | -0.832 | -1.37 | –
8 | S116G | 0.077 | -0.914 | 0.309 | -0.521 | 0.426
9 | S116H | 0.143 | -0.104 | -0.224 | – | –
10 | S116I | -1.66 | -1.25 | -1.72 | -1.75 | -1.57
11 | S116L | 0.17 | -0.834 | -0.066 | -1.6 | -1.06
12 | S116M | -2.83 | -0.496 | -0.441 | -1.67 | –
13 | S116N | -0.928 | -1.6 | – | -0.339 | –
14 | S116P | -0.86 | -0.201 | – | – | -2.6
15 | S116Q | -0.321 | -0.896 | -0.805 | -0.696 | -1.27
16 | S116R | -0.401 | -0.062 | – | -3.22 | –
17 | S116T | -1.7 | – | -0.802 | -0.684 | -0.196
18 | S116V | -1.08 | -1.38 | -0.528 | -1.23 | 1.51
19 | S116W | -0.799 | -0.013 | -0.611 | -1.42 | -1.77
20 | S116Y | -0.9 | -1.1 | -0.219 | -0.458 | -2.62
21 | S116_V117insG | -1.85 | -0.028 | -0.611 | -1.46 | -1.78
22 | V117A | 0.453 | 0.386 | -0.31 | 0.567 | –
23 | V117C | -0.579 | – | -0.63 | -0.36 | -0.671

Row | Variant | cAMP reporter score ([1]; pH 5.5) | cAMP reporter score ([1]; pH 6) | cAMP reporter score ([1]; pH 6.5, modulator: ogerin) | cAMP reporter score ([1]; pH 6, modulator: ogerin) | surface expression score [2]
24 | V117D | -1.97 | -0.954 | -1.43 | -0.597 | -1.85
25 | V117E | -1.62 | -1.47 | -1.39 | -1.81 | -2.19
26 | V117F | 0.125 | – | – | -0.604 | 0.411
27 | V117G | -2.48 | -0.854 | -0.922 | -0.79 | -2.76
28 | V117H | -0.404 | – | – | -0.671 | –
29 | V117I | 0.539 | 0.897 | -0.017 | 0.637 | –
30 | V117K | -0.153 | -0.707 | 0.068 | -0.571 | -1.41
31 | V117L | -0.669 | 0.618 | – | 0.092 | -0.736
32 | V117M | -0.474 | 0.032 | -0.504 | -0.649 | -0.471
33 | V117N | -2.31 | -0.693 | -1.25 | -1.21 | -2.6
34 | V117P | -2.72 | -0.913 | -1.74 | – | -2.16
35 | V117Q | -0.413 | -0.668 | -0.875 | -0.699 | –
36 | V117S | -1.57 | -1.44 | -1.53 | -1.03 | -1.91
37 | V117T | -0.407 | – | -0.431 | – | –
38 | V117W | -0.434 | -1.15 | -1.93 | -1.89 | -1.68
39 | V117Y | -2.51 | – | -1.94 | -1.96 | -1.91
40 | V117_D118insG | -2.53 | -0.968 | -1.49 | -3.49 | –
41 | V117_D118insGS | -1.12 | -0.065 | -0.438 | -3.23 | -1.21
42 | D118del | -1.77 | -1.98 | -1.6 | – | -2.35
43 | R119_L121del | -0.651 | 0.017 | -0.516 | -0.782 | -3.1
44 | R119_Y120insG | -1.99 | -0.861 | -1.67 | -2.11 | -2.54
45 | Y120_L121insGS | -3.35 | -1.17 | – | – | –
46 | L121_A122del | -1.22 | -0.408 | -1.05 | -1.35 | -1.92

Row | Variant | cAMP reporter score ([1]; pH 5.5) | cAMP reporter score ([1]; pH 6) | cAMP reporter score ([1]; pH 6.5, modulator: ogerin) | cAMP reporter score ([1]; pH 6, modulator: ogerin) | surface expression score [2]
47 | L121_A122insGS | -1.94 | -1.62 | -1.44 | -0.938 | -1.63
48 | L121del | -0.642 | -2.06 | -1.11 | – | -3.51
49 | A122_V123del | -1.26 | -1.13 | -0.784 | -2.24 | -2.34
50 | A122_V123insGS | -2.17 | -1.9 | -0.699 | -1.66 | -2.17
51 | V123_A124insG | -2.23 | -1.24 | -2.27 | – | –
52 | V123_A124insGSG | -1.35 | -1.7 | -2.1 | -1.53 | -2.77
53 | H125_F127del | -1.14 | 0.349 | -1.55 | -2.1 | -2.35
54 | P126A | -2.12 | – | – | -1.7 | -1.97
55 | P126C | -0.079 | 1.34 | -0.433 | -0.776 | –
56 | P126D | -0.685 | -0.363 | -1.02 | -1.45 | -2.37
57 | P126E | -1.05 | -1.6 | -1.06 | -1.25 | -0.084
58 | P126H | -0.805 | -0.86 | -1.55 | -1.31 | -2.06
59 | P126K | -1.31 | -1.55 | -1.14 | -1.72 | -1.54
60 | P126L | -2.51 | – | -2.15 | -3.09 | -2.1
61 | P126M | -2.17 | – | -2.33 | -1.34 | -2.43
62 | P126N | -0.57 | – | -1.22 | -0.793 | -2.47
63 | P126Q | -1.46 | -2.86 | -2.39 | -1.53 | -1.65
64 | P126R | -1.13 | -0.942 | -1.31 | – | -0.865
65 | P126S | -0.851 | -1.06 | -1.68 | -1.55 | -1.43
66 | P126T | -0.867 | -0.803 | -0.506 | -0.643 | –
67 | P126V | -0.416 | -0.595 | -0.775 | -1.85 | –
68 | P126Y | -1.53 | -1.23 | -1.29 | -2 | -2.16
